Results published in the supplement of paper PMC10320760.
Single values of this set are uncertain.

B1: Ydj1; a variant is named by its letters at X, in order (parent)
chain: MVKETKFYDILGVPVTATDVEIKKAYRKCALKYHPDKNPSEEAAEKFKEASAAYEILSDPEKRDIYDQFGEDGLSGAGGAGGFPGGGFGFGDDIFSQFFGAGGAQRPRGPQRGKDIKHEISASLEELYKGRTAKLALNKQILCKECEGRGGKKGAVKKCTSCNGQGIKFVTRQMGPMIQRFQTECDVCHGTGDIIDPKDRCKSCNGKKVENERKILEVHVEPGMKDGQRIVFKGEADQAPDVIPGDVVFIVSERPHKSFKRDGDDLVYEAEIDLLTAIAGGEFALEHVSGDWLKVGIVPGEVIAPGMRKVIEGKGMPIPKYGGYGNLIIKFTIKFPENHFTSEENLKKLEEILPPRIVPAIPKKATVDECVLADFDPAKYNRTRASRGGANYDSDEEEQGGEGVQCXXX

Variants of: B1
Assay: enrichment factor, frequency at 37 °C / frequency at 25 °C (thermotolerance selection) (ratio); higher = more growth at 37 °C, higher likelihood of farnesylation
Conditions: with Saccharomyces cerevisiae ydj1Δ (yWS304); selective temperature 37 °C; reference temperature 25 °C
Method: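 Pooled library of all 8,000 Ydj1-CXXX C-terminal motif variants (native CASQ replaced by C + three variable residues, one codon per amino acid) expressed from a CEN plasmid in S. cerevisiae ydj1Δ (yWS304). The library was grown in SC-Ura liquid to A600 ~2 (~8 generations) at permissive 25 °C or selective 37 °C. Reads from 8 and 7 replicates were pooled and variants counted by NGS. Enrichment factor = frequency at 37 °C / frequency at 25 °C, with a +1 correction; it reports Ydj1-dependent thermotolerance, used as a read-out of farnesylation by yeast FTase.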
For SGD, the enrichment factor was 0.045. Work on QGD yielded an enrichment factor of 0.105. In the case of QGK, the enrichment factor is reported as 0.148. Variant QGN has an enrichment factor of 0.452. For QGE, the enrichment factor was 0.157. QGH gave an enrichment factor of 1.94. QGL gave an enrichment factor of 0.978. Variant QGS has an enrichment factor of 1.39. For QGG, the enrichment factor was 0.176. QGQ was tested, and the enrichment factor was 1.47. With QGR the enrichment factor was 0.158. In the case of QGP, the enrichment factor is reported as 0.171. With QGM the enrichment factor was 1.82. QGF gave an enrichment factor of 1.37. For QGI, the enrichment factor was 1.24. For QGA, the enrichment factor was 1.12. Variant QGT has an enrichment factor of 1.13. For QGC, the enrichment factor was 1.92. Variant YGK has an enrichment factor of 0.111. For YGL, the enrichment factor was 0.248. YGS gave an enrichment factor of 1.12. YGF was tested, and the enrichment factor was 1.42. Work on YGC yielded an enrichment factor of 1.3. For YGT, the enrichment factor was 0.815. YGA gave an enrichment factor of 0.646. For YGM, the enrichment factor was 1.64. For YGH, the enrichment factor was 0.731. YGR gave an enrichment factor of 0.0951. YGG was tested, and the enrichment factor was 0.277. Work on YGN yielded an enrichment factor of 0.241. In the case of YGI, the enrichment factor is reported as 0.324. YGE gave an enrichment factor of 0.163. For YGQ, the enrichment factor was 1.03. Variant YGP has an enrichment factor of 0.13. In the case of YGD, the enrichment factor is reported as 0.136. In the case of LGH, the enrichment factor is reported as 1.26. Variant LGK has an enrichment factor of 0.155. Variant LGQ has an enrichment factor of 1.14. Work on LGE yielded an enrichment factor of 0.194. LGF gave an enrichment factor of 0.684. For LGI, the enrichment factor was 0.857. For LGP, the enrichment factor was 0.169. LGD was tested, and the enrichment factor was 0.16. Work on LGT yielded an enrichment factor of 1.12. Work on LGN yielded an enrichment factor of 0.846. Variant LGR has an enrichment factor of 0.192. LGC showed an enrichment factor of 0.131. LGS gave an enrichment factor of 0.891. LGM was tested, and the enrichment factor was 0.904. With LGL the enrichment factor was 0.995. Work on LGG yielded an enrichment factor of 0.844. In the case of WGC, the enrichment factor is reported as 0.0513. Variant WGI has an enrichment factor of 1.51. Variant WGF has an enrichment factor of 1.27. In the case of WGS, the enrichment factor is reported as 1.13. WGL showed an enrichment factor of 1.55. In the case of WGR, the enrichment factor is reported as 0.226. For WGP, the enrichment factor was 0.856. WGN was tested, and the enrichment factor was 0.719. WGQ gave an enrichment factor of 1.44. Work on WGH yielded an enrichment factor of 1.53. WGM was tested, and the enrichment factor was 0.98. For WGG, the enrichment factor was 1.62. WGK showed an enrichment factor of 0.254. WGA gave an enrichment factor of 1.26. Work on WGT yielded an enrichment factor of 1. With WGD the enrichment factor was 0.2. WGE was tested, and the enrichment factor was 0.399. GGM showed an enrichment factor of 1.49. Work on GGP yielded an enrichment factor of 0.243. With GGR the enrichment factor was 0.143. GGT was tested, and the enrichment factor was 0.343. GGC was tested, and the enrichment factor was 0.544. With GGG the enrichment factor was 0.214. With GGE the enrichment factor was 0.17. GGQ was tested, and the enrichment factor was 2.14. In the case of GGH, the enrichment factor is reported as 0.521. Variant GGF has an enrichment factor of 1.89. For GGL, the enrichment factor was 0.278. For GGI, the enrichment factor was 0.323. Variant GGS has an enrichment factor of 0.44. GGD gave an enrichment factor of 0.114. With GGK the enrichment factor was 0.0755. GGN was tested, and the enrichment factor was 0.0936. Work on NGM yielded an enrichment factor of 1.71. Work on NGK yielded an enrichment factor of 0.109. In the case of NGH, the enrichment factor is reported as 1.57. NGC was tested, and the enrichment factor was 1.4. NGS was tested, and the enrichment factor was 1.66. In the case of NGN, the enrichment factor is reported as 0.18. NGE was tested, and the enrichment factor was 0.102. NGT was tested, and the enrichment factor was 1.03. With NGQ the enrichment factor was 1.59. Work on NGR yielded an enrichment factor of 0.0624. NGL gave an enrichment factor of 0.862. With NGD the enrichment factor was 0.322. For NGI, the enrichment factor was 1.06. NGP was tested, and the enrichment factor was 0.0827. For NGA, the enrichment factor was 0.787. Work on NGF yielded an enrichment factor of 1.92. NGG was tested, and the enrichment factor was 0.323. TGS showed an enrichment factor of 2.52. Variant TGF has an enrichment factor of 0.825. Variant TGA has an enrichment factor of 1.83. Work on TGH yielded an enrichment factor of 1.9. With TGI the enrichment factor was 1.71. TGE gave an enrichment factor of 0.167. With TGT the enrichment factor was 1.46. TGL was tested, and the enrichment factor was 1.53. TGN showed an enrichment factor of 0.852. For TGP, the enrichment factor was 0.195. TGR gave an enrichment factor of 0.17. Work on TGM yielded an enrichment factor of 1.2. Work on TGG yielded an enrichment factor of 0.398. For TGC, the enrichment factor was 0.677. With TGK the enrichment factor was 0.159. Variant TGQ has an enrichment factor of 1.47. Variant TGD has an enrichment factor of 0.261. In the case of FGG, the enrichment factor is reported as 0.63. FGS gave an enrichment factor of 1.39. Work on FGE yielded an enrichment factor of 0.176. Variant FGL has an enrichment factor of 0.751. FGD was tested, and the enrichment factor was 0.182. For FGI, the enrichment factor was 1.26. With FGC the enrichment factor was 0.11. FGQ gave an enrichment factor of 0.974. Variant FGR has an enrichment factor of 0.209. In the case of FGK, the enrichment factor is reported as 0.136. In the case of FGT, the enrichment factor is reported as 1.01. For FGV, the enrichment factor was 1.07. FGH was tested, and the enrichment factor was 1.21. FGP was tested, and the enrichment factor was 0.476. With FGM the enrichment factor was 1.25. Work on FGF yielded an enrichment factor of 1.04. FGN was tested, and the enrichment factor was 0.621. In the case of HGP, the enrichment factor is reported as 0.13. For HGN, the enrichment factor was 0.306. In the case of HGL, the enrichment factor is reported as 0.18. In the case of HGI, the enrichment factor is reported as 0.241. In the case of HGS, the enrichment factor is reported as 1.39. For HGF, the enrichment factor was 2.43. With HGK the enrichment factor was 0.149. With HGM the enrichment factor was 1.41. Work on HGD yielded an enrichment factor of 0.145. HGG gave an enrichment factor of 0.501. HGC was tested, and the enrichment factor was 1.33. HGR showed an enrichment factor of 0.17. For HGE, the enrichment factor was 0.12. HGQ gave an enrichment factor of 1.33. HGH gave an enrichment factor of 1.65. For HGT, the enrichment factor was 0.635. Work on IGM yielded an enrichment factor of 1.15. Variant IGK has an enrichment factor of 0.169. With IGD the enrichment factor was 0.157. IGR was tested, and the enrichment factor was 0.0987. Work on IGP yielded an enrichment factor of 0.131. IGT gave an enrichment factor of 1.21. Work on IGL yielded an enrichment factor of 0.806. IGI showed an enrichment factor of 1.1. In the case of IGN, the enrichment factor is reported as 0.942. With IGQ the enrichment factor was 1.02. IGC was tested, and the enrichment factor was 0.155. IGF was tested, and the enrichment factor was 2.02. IGH was tested, and the enrichment factor was 1.42. Variant IGE has an enrichment factor of 0.138. IGG was tested, and the enrichment factor was 1.16. In the case of IGS, the enrichment factor is reported as 1.21.
